Source: PubChem BioAssay AID1645882 (National Center for Advancing Translational Sciences (NCATS), 2021)
Among all 16,000 compounds or so, about 120 (0.75%) were called active. Another 4% or so got no clear call; they are omitted. Calls come from the whole dose curve; as a rule, active = well fitted inhibition curve with a large enough effect; inconclusive = small, poorly fitted or top-dose-only effect; inactive = no such curve, though single readings can be large or run the other way. Some of the results follow.

target: Rap guanine nucleotide exchange factor 3 (Homo sapiens) (UniProt O95398); test: Validation qHTS for antagonist of cAMP-regulated guanine nucleotide exchange factor 3 (EPAC1); details: EPAC1 Rap1B-BODIPY-GDP exchange, fluorescence; series mostly up to 150 µM; activity change, negative = inhibition: at the top concentration;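 note: plate controls were DMSO for no effect and ATA control for full effect; nearly all actives have a fitted effect of over 75% in size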
Sequence of UniProt O95398 (O95398 whole entry, looked up): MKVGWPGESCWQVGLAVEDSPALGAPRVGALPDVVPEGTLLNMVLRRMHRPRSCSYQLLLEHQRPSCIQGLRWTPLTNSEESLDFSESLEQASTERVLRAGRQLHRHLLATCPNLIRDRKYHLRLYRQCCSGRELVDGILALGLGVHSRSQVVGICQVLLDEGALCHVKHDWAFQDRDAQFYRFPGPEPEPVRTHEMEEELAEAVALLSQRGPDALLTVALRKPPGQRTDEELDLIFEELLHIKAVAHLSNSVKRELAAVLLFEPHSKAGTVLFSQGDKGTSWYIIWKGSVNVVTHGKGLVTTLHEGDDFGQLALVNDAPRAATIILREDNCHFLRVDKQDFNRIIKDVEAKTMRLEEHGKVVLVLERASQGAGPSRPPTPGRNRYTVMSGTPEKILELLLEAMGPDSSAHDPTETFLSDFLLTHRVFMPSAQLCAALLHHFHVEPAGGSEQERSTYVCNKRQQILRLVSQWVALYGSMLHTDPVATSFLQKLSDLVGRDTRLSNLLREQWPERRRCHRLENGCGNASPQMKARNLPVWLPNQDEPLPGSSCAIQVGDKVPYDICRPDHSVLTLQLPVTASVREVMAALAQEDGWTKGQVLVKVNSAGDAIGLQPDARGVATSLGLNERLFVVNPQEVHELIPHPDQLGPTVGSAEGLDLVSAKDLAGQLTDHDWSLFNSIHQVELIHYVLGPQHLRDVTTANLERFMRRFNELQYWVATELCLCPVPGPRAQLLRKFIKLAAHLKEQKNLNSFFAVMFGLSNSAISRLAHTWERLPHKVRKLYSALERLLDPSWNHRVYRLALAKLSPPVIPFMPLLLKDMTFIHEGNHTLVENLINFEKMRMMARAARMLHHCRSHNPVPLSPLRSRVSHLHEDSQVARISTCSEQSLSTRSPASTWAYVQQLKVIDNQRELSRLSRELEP
Procedure, shortened: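 Nucleotide exchange followed as fluorescence loss when BODIPY-GDP leaves Rap1B (480 nm excitation, 540 nm emission), read at 5 min intervals over 30 min. Reaction: 100 nM EPAC1, 250 nM RAP1B-BODIPY-GDP, 50 uM GDP; ATA and DMSO define normalization.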

| Structure (SMILES) | activity change, negative = inhibition |
| --- | --- |
| COc1ccc2c(c1)OC(C)CN(CCNC(=O)c1cccc(N3CCNC3=O)c1)C2 (stereo not given) | inactive: -0.256% |
| O=C(NCCc1nnc2n1CCN(Cc1ccccn1)CC2)c1ccc(F)cc1 | inactive: 2.66% |
| CCS(=O)(=O)Nc1cc(C(=O)N2CCCN(C=O)CC2)c2c(c1)nc(-c1ccccc1)n2C | inactive: 6.38% |
| COc1ccc(CNC(=O)[C@@H]2CC=C[C@@H]3CCN(C4CCCCC4)C(=O)[C@@H]32)cc1 | inactive: -9.12% |
| COC(=O)C1OC(=O)C2OC23[C@]2(C)C(OC(C)=O)CC4C(C)(C)C(=O)CC[C@]4(C)C2CC[C@@]13C (stereo not given in full) | inactive: 12.8% |
| COC1=CC(=O)C=C(OC)C1=O | inactive: 17% |
| CC(C)N1[N]C(=C2C=c3cc(O)ccc3=N2)c2c(N)ncnc21 | inactive: 15.2% |
| CCc1ccc(C(=O)C(C)CN2CCCCC2)cc1 (stereo not given) | inactive: 7.78% |
| Cc1ccc(CN2CCc3nnc(C(C)NC(=O)c4cc(F)ccc4F)n3CC2)o1 (stereo not given) | inactive: -6.42% |
| CC(=O)Nc1ccc(SCCN2CC[C@@H](C(C)(C)C)CCC2=O)cc1 | inactive: -6.44% |
| CCC1C(=O)NCCN1Cc1ccc2c(c1)CN(Cc1cccc(OC)c1)CCO2 (stereo not given) | inactive: 11.6% |
| COc1cc(CN2CCOc3ccc(CN4CCN(CCO)CC4)cc3C2)ccc1F | inactive: 11.6% |
| OCc1ccccn1 | inactive: 14.3% |
| CN(C(=O)c1c(O)c2ccccc2n(C)c1=O)c1ccccc1 | inactive: 11.5% |
| COc1cc(-c2cc(C)c3c(OC)ccc(OC)c3n2)cc2c1OCCN(Cc1cn(C)nc1C)C2 | inactive: 2.69% |
| O=C(C[n+]1ccnc2ccccc21)c1ccc(Cl)cc1 | inactive: 11.7% |
| COc1ccnc(CS(=O)c2nc3ccc(OC(F)F)cc3[nH]2)c1OC (stereo not given) | inactive: -11.3% |
| CC[C@@H]1[C@H]2CCCC(=O)N3CC[C@@H](C[C@H]1O)[C@@H]23 | inactive: 15.5% |
| O=C(NCCN1Cc2ccccc2OC(c2ccccc2F)C1)c1ccco1 (stereo not given) | inactive: 2.09% |
| COc1cc2c(cc1OC)C(/C=C/c1ccc(OC)c(OC)c1OC)=NCC2 | inactive: 11% |
| O=C(c1cnccn1)N1CCC2(CC1)CCN(c1cccc(-c3ccccc3)c1)CC2 | inactive: -2.64% |
| COc1ccc(O)c(C(=O)N2CCC3(CC2)c2ccccc2[C@@H](NC(=O)c2ccccn2)[C@@H]3OC)c1 | inactive: 8.16% |

| Structure (SMILES) | activity change, negative = inhibition |
| --- | --- |
| COc1ccc(CNc2ncncc2-c2ccc(N(C)C)cc2)c(OC)c1 | inactive: -7.84% |
| N#CCCn1c(=O)c(CCc2ccccc2)nc2cnc(N3CCOCC3)nc21 | inactive: 8.09% |
| Nc1nc2[nH]cc(CCc3ccc(C(=O)N[C@@H](CCC(=O)O)C(=O)O)cc3)c2c(=O)[nH]1 | inactive: 18.4% |
| O=C(c1cnn2cccnc12)N1CCOc2ccc(C(O)C(c3ccccc3)c3ccccc3)cc2C1 (stereo not given) | inactive: 13.5% |
| CCCCCCCCCCCCCCCCOCC(COP(=O)([O-])OCC[N+](C)(C)C)OC (stereo not given) | inactive: 18% [at 15.3 µM] |
| O=C(c1cccc(F)c1)N1CCC2(CCCN(c3ncccn3)C2)CC1 | inactive: 7.34% |
| COc1ccccc1CN1CCC2(CC1)CCN(C(=O)c1csnn1)CC2 | inactive: 1.24% |
| COc1ccc(OC)c(CN2CCCC(c3nc(-c4ccncc4)ncc3-c3ccccc3C)C2)c1 (stereo not given) | inactive: 12.9% |
| O=C(c1csnn1)N1CCC2(CC1)CN(c1ccccn1)C2 | inactive: 18.4% |
| COCCc1ccc(OCC(O)CNC(C)C)cc1 (stereo not given) | inactive |
| CC(C)(C)NCC(O)COc1cccc2c1C[C@H](O)[C@H](O)C2 (stereo not given in full) | inactive: 6.16% [at 75.8 µM] |
| COc1ccc(NC(=O)N2CC3(CCN(S(=O)(=O)c4ccccc4)CC3)C2)cc1 | inactive: 20.3% |
| Nc1nc(=O)n(C2OC(CO)C(O)C2O)cc1Cl (stereo not given) | inactive: 18.8% |
| CCCCC[C@H](O)C=C[C@H]1[C@H](O)CC(=O)[C@H]1CCCCCCC(=O)O | inactive: 9.61% |
| COc1ccc(C(=O)c2ccccc2O)c(O)c1 | inactive |
| N#Cc1cccc(-c2cc(NCc3cccs3)ncn2)c1 | inactive: 20% |
| O=C(Cn1cncn1)NCC1Cc2cc(-c3ccsc3)cc(Cl)c2O1 (stereo not given) | inactive: 6.69% |
| CC(C)(C)NC[C@H](O)COc1ccccc1C1CCCC1 | inactive: -2.7% [at 75.8 µM] |
| COC(=O)C[C@H]1c2cc(C(F)(F)F)ccc2S(=O)(=O)N1C(C)C | inactive: -13.7% |
| Cc1nc2cc(NC(=O)[C@@H]3C[C@@H](Sc4ccccn4)CN3Cc3ccccc3F)ccc2s1 | inactive: 8.09% |
| COc1cc(-c2cccc(Cl)c2)cc2c1OCCN(C(=O)CCn1ccc(C)n1)C2 | inactive: 9.53% |
| CC(=O)OC1CCC2(C)C3CC(=O)C4(C)C(CC5OC6(CCC(C)CO6)C(C)C54)C3CC[C@H]2C1 (stereo not given in full) | inactive: -7.46% |

| Structure (SMILES) | activity change, negative = inhibition |
| --- | --- |
| COc1ccccc1OCC1CNC(=O)O1 (stereo not given) | inactive: 32.5% |
| COC(=O)C1CCCCN1Cc1ccc2c(c1)CN(C(=O)c1csc(-c3cccs3)n1)CCO2 (stereo not given) | inactive: 23% |
| O=S(=O)(O)c1cc(I)c(O)c2ncccc12 | inactive: 15.7% |
| c1cc2c3c(c1)c1c(n3CCNC2)CCCC1 | inactive: -9.26% |
| O=C(NC(c1cccnc1)C(F)(F)F)c1cnn(-c2nccc(-c3cccs3)n2)c1C1CC1 (stereo not given) | inactive: -1.26% |
| Cc1nc(C(C)NC2CCN(c3cccc(NC(=O)c4ccncc4)c3)CC2)cs1 (stereo not given) | inactive: -4.98% |
| O=C1[C@H](CC[C@H](O)c2ccc(F)cc2)[C@@H](c2ccc(O)cc2)N1c1ccc(F)cc1 | inactive: 0.204% |
| COc1ccccc1CN1CCC(n2cc(C(=O)N3CCCCC3)nn2)CC1 | inactive: 17.5% |
| COc1ccc(OC)c(-c2ccnc(-n3ncc(C(=O)NC(C)(C)CO)c3C3CC3)n2)c1 | inactive: 11.9% |
| CC(C)c1cc(C(=O)N2CCOc3ccc(CN4CCC(Oc5cccnc5)CC4)cc3C2)n[nH]1 | inactive: 23% |
| CC(C)NCC1CCc2cc(CO)c([N+](=O)[O-])cc2N1 (stereo not given) | inactive: 13.4% [at 75.8 µM] |
| COCCn1c(=O)c(-c2cccc(C#N)c2)nc2cnc(N(C)C)nc21 | inactive: 45.7% |
| Cc1cnc(C(=O)NCCc2ccc(S(=O)(=O)NC(=O)NC3CCCCC3)cc2)cn1 | inactive |
| CCc1ccc2c(O)c3c(cc2c1C(=O)OC)C(=O)c1c(O)ccc(O)c1C3=O | inactive: 16.6% |
| COC(=O)[C@@H]1CCCN1Cc1ccc2c(c1)CN(Cc1ccccc1)CCO2 | inactive: 13.6% |
| O=C(Cc1ccccc1)Nc1nc2ccc(Cl)cc2c2nc(-c3ccco3)nn12 | inactive |
| CC(C)NC[C@H](O)COc1cccc2[nH]ccc12 | inactive |
| COc1ccc2c(c1)OC(C)(C)C(c1ccccc1)C2c1ccc(OCCN2CCCC2)cc1 (stereo not given) | inactive: -6.34% |
| CC(C)CN1CCCC2(CCN(C(=O)c3csnn3)CC2)C1 | inactive: 20.3% |
| CC(=O)Nc1ccc(SCCN2CC[C@@H](O)CCC2=O)cc1 | inactive: 5.24% |
| CC(C)NC(=O)N1CCC2(CC1)CCN(C(=O)c1ccncc1)CC2 | inactive: 35.3% |
